Assay results: paper PMC12516561 (2025)
These are yes or no findings as the source states them, for the method shown. Binding seen in cells or lysates may run through a third protein. Some results given as binding are weak or reduced against the parent protein; the word gives no strength. Tags and fused reporters may be left off the sequences shown.

By UniProt entry, the sequences of proteins in these tests, tags left out.
UniProt P62258: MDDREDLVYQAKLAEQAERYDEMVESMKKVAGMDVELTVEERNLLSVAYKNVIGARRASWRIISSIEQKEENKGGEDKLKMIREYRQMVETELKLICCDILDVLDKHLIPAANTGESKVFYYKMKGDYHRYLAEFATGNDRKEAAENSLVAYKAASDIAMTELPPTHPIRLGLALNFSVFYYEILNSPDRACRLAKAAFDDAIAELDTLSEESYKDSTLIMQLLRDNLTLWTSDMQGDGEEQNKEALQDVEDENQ
UniProt P53618: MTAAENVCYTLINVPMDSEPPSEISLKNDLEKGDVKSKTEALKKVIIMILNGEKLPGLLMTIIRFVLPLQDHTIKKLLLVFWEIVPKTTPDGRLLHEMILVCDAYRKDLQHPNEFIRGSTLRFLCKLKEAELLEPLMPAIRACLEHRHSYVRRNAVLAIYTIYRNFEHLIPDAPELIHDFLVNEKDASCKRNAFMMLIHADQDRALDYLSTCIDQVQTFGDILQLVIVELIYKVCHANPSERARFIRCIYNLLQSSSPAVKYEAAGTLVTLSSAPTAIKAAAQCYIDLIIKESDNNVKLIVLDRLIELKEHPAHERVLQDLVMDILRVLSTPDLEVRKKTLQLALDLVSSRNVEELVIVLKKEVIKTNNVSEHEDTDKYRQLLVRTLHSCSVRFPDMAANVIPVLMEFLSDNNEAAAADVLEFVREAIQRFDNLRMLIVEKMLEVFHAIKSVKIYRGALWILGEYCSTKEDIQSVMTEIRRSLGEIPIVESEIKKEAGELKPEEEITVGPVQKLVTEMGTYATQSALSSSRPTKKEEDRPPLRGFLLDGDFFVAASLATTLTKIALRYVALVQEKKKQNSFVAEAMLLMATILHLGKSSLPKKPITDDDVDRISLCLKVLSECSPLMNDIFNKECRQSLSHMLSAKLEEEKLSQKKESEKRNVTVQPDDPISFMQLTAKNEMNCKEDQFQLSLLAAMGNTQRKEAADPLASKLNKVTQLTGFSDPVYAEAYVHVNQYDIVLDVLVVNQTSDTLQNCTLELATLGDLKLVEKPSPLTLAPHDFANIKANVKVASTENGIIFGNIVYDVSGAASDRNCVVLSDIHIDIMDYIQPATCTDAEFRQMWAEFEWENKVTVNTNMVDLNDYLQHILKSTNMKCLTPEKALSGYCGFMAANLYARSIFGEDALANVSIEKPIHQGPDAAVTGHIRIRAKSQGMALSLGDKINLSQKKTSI
UniProt P51812: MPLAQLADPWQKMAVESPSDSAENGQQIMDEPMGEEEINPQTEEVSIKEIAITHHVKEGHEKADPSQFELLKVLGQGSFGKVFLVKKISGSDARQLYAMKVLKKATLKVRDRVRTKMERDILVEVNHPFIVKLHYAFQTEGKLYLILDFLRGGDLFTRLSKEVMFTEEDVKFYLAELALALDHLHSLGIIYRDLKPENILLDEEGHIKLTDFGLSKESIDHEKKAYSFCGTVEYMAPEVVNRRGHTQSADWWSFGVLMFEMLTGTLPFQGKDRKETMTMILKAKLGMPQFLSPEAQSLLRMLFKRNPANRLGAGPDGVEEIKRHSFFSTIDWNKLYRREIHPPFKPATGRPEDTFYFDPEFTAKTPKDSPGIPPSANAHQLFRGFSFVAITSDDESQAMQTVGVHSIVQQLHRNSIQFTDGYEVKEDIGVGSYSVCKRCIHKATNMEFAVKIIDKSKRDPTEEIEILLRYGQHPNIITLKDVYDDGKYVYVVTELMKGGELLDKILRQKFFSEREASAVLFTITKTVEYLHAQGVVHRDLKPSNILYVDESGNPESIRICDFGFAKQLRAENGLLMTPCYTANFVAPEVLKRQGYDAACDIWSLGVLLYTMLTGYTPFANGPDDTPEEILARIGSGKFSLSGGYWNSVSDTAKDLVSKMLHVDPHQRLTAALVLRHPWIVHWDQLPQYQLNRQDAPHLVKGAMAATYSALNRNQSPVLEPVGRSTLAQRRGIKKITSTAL

Tests used:
Assay in all cases: co-IP; anti-HA magnetic beads, 4 °C, at least 2 h; Triton X-100 lysis buffer (1% Triton X-100, 150 mM NaCl, 50 mM Tris-HCl pH 7.5); iRhom1/2 DKO HEK293T cells transfected with HA-iRhom2 variants, with GFP-KRAS G12V or GFP (Fig. 1C), alone (Fig. 6C) or with V5-FRMD8 (Fig. 6F); Western blot
[1] = biological target: T1, iRhom2 PRRKRM/As mutant (HA-tagged) (human) (UniProt Q6PJF5)
T1 sequence: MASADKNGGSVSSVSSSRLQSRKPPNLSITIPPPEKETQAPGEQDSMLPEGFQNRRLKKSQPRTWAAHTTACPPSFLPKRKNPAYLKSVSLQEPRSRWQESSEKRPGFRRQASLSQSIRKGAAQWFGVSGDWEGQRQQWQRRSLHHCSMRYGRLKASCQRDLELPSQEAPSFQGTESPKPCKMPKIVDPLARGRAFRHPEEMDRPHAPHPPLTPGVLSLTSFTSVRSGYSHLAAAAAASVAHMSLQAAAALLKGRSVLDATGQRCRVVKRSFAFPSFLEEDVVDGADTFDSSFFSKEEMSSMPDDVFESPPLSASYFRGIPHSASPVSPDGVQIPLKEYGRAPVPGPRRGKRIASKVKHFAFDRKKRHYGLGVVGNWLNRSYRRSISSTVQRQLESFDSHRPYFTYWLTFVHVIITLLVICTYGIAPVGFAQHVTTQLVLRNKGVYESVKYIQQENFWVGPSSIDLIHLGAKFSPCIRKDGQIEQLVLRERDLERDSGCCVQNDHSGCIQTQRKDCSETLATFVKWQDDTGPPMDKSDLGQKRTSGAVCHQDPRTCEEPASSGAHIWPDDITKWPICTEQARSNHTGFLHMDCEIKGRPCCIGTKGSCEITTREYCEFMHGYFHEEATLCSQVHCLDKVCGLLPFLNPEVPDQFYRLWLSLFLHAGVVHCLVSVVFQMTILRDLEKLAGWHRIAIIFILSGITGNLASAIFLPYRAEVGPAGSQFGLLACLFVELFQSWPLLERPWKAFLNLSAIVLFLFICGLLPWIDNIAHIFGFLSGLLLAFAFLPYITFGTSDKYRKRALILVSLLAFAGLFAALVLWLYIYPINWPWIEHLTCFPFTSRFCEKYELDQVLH

[2] = biological target: T2, iRhom2 RKR-only mutant (HA-tagged) (human) (UniProt Q6PJF5)
T2 sequence: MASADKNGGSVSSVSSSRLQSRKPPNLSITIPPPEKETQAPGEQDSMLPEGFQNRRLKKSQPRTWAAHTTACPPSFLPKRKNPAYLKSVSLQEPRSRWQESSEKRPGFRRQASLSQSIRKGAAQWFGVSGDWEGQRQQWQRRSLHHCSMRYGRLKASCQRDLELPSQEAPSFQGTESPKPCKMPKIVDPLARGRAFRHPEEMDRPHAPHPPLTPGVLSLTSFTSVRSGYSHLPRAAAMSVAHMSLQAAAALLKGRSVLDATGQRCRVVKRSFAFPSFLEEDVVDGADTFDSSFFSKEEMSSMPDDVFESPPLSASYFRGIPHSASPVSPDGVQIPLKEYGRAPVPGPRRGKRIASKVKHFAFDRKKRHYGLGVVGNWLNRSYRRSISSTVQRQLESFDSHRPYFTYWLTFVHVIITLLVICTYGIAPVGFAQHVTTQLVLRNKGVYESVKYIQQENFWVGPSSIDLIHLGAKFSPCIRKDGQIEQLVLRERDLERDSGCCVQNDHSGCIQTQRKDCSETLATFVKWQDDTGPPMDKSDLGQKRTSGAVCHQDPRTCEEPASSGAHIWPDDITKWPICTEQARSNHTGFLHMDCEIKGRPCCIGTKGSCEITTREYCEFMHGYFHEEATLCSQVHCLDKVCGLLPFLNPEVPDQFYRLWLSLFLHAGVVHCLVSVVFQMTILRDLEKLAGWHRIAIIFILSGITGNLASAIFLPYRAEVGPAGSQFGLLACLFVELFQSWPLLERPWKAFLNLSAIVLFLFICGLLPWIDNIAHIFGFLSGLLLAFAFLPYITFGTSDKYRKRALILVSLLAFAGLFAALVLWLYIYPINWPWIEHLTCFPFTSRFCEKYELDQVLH

[3] = biological target: T3, iRhom2 wild type (HA-tagged) (human) (UniProt Q6PJF5)
T3 sequence: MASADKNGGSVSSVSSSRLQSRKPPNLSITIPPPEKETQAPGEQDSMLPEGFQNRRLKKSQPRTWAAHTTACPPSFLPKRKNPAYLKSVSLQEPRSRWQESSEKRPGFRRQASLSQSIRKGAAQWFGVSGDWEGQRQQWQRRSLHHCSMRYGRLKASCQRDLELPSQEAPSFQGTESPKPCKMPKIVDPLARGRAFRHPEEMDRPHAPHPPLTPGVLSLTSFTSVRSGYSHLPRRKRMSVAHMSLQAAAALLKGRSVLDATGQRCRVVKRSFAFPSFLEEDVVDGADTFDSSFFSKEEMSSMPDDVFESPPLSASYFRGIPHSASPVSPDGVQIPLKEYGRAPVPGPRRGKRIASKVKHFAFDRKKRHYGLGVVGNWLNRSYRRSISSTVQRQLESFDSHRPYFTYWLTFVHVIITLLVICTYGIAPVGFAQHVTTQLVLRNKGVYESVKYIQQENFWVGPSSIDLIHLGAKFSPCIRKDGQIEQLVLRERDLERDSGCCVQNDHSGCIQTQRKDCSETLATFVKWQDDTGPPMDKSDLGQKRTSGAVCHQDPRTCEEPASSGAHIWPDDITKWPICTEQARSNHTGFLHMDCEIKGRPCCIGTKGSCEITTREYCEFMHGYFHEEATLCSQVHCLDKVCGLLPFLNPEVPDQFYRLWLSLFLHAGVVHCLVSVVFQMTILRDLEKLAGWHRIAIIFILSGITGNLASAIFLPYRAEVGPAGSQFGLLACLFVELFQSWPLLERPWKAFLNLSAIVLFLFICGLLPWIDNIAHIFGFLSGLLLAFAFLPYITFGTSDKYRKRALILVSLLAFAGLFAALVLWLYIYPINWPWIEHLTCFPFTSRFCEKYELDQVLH

[4] = biological target: T4, iRhom2 F307A (HA-tagged) (human) (UniProt Q6PJF5)
T4 sequence: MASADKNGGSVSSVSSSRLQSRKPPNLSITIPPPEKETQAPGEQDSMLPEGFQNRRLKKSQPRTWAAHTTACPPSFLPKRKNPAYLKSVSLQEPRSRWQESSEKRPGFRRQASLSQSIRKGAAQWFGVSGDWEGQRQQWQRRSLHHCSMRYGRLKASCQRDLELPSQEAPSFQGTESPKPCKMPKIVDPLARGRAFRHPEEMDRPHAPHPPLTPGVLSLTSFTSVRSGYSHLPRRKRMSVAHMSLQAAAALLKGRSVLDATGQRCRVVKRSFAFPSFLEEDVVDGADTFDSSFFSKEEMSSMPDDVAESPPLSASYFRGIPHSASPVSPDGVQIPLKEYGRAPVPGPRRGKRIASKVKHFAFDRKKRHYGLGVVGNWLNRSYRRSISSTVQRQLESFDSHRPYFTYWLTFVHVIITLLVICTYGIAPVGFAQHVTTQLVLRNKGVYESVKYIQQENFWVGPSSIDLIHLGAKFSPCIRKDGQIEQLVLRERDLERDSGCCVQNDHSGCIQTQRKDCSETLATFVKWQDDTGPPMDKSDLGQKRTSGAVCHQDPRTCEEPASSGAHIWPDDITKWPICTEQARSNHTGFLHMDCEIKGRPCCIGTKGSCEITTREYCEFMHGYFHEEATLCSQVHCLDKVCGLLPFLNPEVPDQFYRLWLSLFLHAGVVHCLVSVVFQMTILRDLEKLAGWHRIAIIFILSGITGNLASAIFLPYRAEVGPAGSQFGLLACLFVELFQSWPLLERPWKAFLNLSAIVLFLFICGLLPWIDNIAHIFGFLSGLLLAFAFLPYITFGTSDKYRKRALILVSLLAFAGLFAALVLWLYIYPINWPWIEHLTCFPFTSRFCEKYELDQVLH

## 14-3-3 epsilon, endogenous (from UniProt P62258 1-255)
[1]
  binding: binds
[2]
  binding: binds
[3]
  binding: binds

## beta-COP, endogenous (from UniProt P53618 1-953)
[1]
  binding: binds
[2]
  binding: binds
[3]
  binding: binds

## ribosomal protein S6 kinase alpha-3 (RSK2), endogenous (from UniProt P51812 1-740) (enzyme)
[4]
  binding: no binding
[3]
  binding: binds

B1: V5-tagged FRMD8 (protein, UniProt Q9BZ67 1-464)
chain: MDGTEGSAGQPGPAERSHRSSVSSVGARAADVLVYLADDTVVPLAVENLPSLSAHELHRAVREVLQLPDIALDVFALWLVSPLLEVQLKPKHQPYKLGRQWPELLLRFTSAPDDDVAMDEPFLQFRRNVFFPKRRELQIHDEEVLRLLYEEAKGNVLAARYPCDVEDCEALGALVCRVQLGPYQPGRPAACDLREKLDSFLPAHLCKRGQSLFAALRGRGARAGPGEQGLLNAYRQVQEVSSDGGCEAALGTHYRAYLLKCHELPFYGCAFFHGEVDKPAQGFLHRGGRKPVSVAISLEGVHVIDSREKHVLLGLRFQELSWDHTSPEEEEPILWLEFDGDSEGTPVNKLLKIYSKQAELMSSLIEYCIELSQAAEPAGPQDSATGSPSDPSSSLAPVQRPKLRRQGSVVSSRIQHLSTIDYVEDGKGIRRVKPKRTTSFFSRQLSLGQGSYTVVQPGDSLEQG
[1]
  binding: binds
[2]
  binding: binds
[3]
  binding: binds
